This passage reports binding signal results from publication PMC7819943, “Rice protein-binding microarrays: a tool to detect cis-acting elements near promoter regions in rice”.

Some of the results follow.

The experiment concerns the target T1, OsWOX13 (Oryza sativa, UniProt Q5QMM3 1-267).
T1 sequence: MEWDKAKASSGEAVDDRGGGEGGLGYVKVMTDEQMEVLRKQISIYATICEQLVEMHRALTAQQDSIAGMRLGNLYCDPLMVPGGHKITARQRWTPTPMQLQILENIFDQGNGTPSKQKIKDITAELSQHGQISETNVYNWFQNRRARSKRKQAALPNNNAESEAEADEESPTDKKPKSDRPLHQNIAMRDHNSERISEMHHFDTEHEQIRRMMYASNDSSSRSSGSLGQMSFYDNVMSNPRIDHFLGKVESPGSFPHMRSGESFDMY
Kind of experiment: protein-binding microarray (RPBM); PBS, 2% BSA, 51.3 ng/ul salmon testes DNA, 50 uM zinc acetate, 200 nM TF, 25 C, 1 h; high values mean tight binding. The settings on record: protein: recombinant; tags: N-terminal polyhistidine and DsRed monomer fusion (pET32a); label: CyDye5-dUTP incorporated in the synthesized complementary strand; 3' TTTTT single-stranded linker to array surface; dsDNA, one strand shown. The procedure, abridged:
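Transcription factors were made in E. coli BL21-CodonPlus as N-terminal fusions to a polyhistidine tag and DsRed, then purified on Ni–NTA. After primer extension with Cy5-dUTP and blocking with 2% BSA, a custom Agilent array was exposed for 1 h at 25 °C to 200 nM protein in PBS, 2% BSA, salmon testes DNA and 50 µM zinc acetate. Washed arrays were scanned on an Axon 4000B, and the binding signal is per-feature fluorescence intensity in arbitrary units.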
For “TTCGTCACAAACTAATTAAGTTTCCCCTTCACTCCAGCCACGGAGTCACCTAGTGCAG”, the binding signal was 6480 fluorescence intensity (a.u.).
In the case of “TTGGTCGTAATTTTGTTCTTGCAATTAAATATTTATGGAGCGGAGTCACCTAGTGCAG” it was 6220 fluorescence intensity (a.u.).
Consider “ACCGAATTTGTAGAATAATTTGTCAATATCTCAAATATCACGGAGTCACCTAGTGCAG”, for which the binding signal is 4140 fluorescence intensity (a.u.).
In the case of “CATGATCGAGATGGAGTTCTAATTTATTGGTTGTATTGTACGGAGTCACCTAGTGCAG”, the binding signal was 6510 fluorescence intensity (a.u.).
With “ACTTACTGTCAATCCTCATTGTGTATGCAAGTTTTGTGATCGGAGTCACCTAGTGCAG” the figure was 6020 fluorescence intensity (a.u.); with “TGTTAGAGGATTGACTGTTCCAACAAGATTATTACAATAGCGGAGTCACCTAGTGCAG”, 10200 fluorescence intensity (a.u.).
In the case of “CATAATCTATCAATTTTCAATTAGAAAATTGACTCTGACTCGGAGTCACCTAGTGCAG” it was 36300 fluorescence intensity (a.u.); in that of “CACACCTAATCGCAGTAAATTGTTACTCCCTCCGTCCCATCGGAGTCACCTAGTGCAG”, 3170 fluorescence intensity (a.u.); in that of “TTCTTTTCTATCATTGGCTTTTGAATTGCTAAGAACATAACGGAGTCACCTAGTGCAG”, 5040 fluorescence intensity (a.u.).
With “TGTTATTGTCTATTTGGCTTCACCTTATTGATTTAGCAAACGGAGTCACCTAGTGCAG”, the binding signal was 3480 fluorescence intensity (a.u.).
In the case of “GCCAAATCATTTGCAGAATTATTTATCTGGCATAAACAAACGGAGTCACCTAGTGCAG” it was 5080 fluorescence intensity (a.u.); in that of “CTTTGATTTACCCTTTCGCGCACCAAACACCAAACCCTCGCGGAGTCACCTAGTGCAG”, 13300 fluorescence intensity (a.u.); in that of “ACATGATGGACCAAATGCTCTGGAACAACCTGATTCAGAGCGGAGTCACCTAGTGCAG”, 6770 fluorescence intensity (a.u.).
With “TGACTGATTGGACCCACCCGTCAGCGTGATTACGAGGACGCGGAGTCACCTAGTGCAG” the figure was 45400 fluorescence intensity (a.u.); with “TTCAATCCCAAATTATATGTACACAATTGTGCGGGTTGTTCGGAGTCACCTAGTGCAG”, 3280 fluorescence intensity (a.u.); with “GGCCAGTGATTATTTTATTAGACGGGTATATCTTCTAGCCCGGAGTCACCTAGTGCAG”, 26200 fluorescence intensity (a.u.).
Regarding “ACTCGATTGATGTTGTCCTCGCCATGAAGCAACCACGACCCGGAGTCACCTAGTGCAG”, the binding signal is 23900 fluorescence intensity (a.u.).
With “TCATTAATTTTCTATCAAATCTTGAAGTTGCAATTTGCAACGGAGTCACCTAGTGCAG”, the binding signal was 11200 fluorescence intensity (a.u.).
Take “AAGCAAATCGCCAATTAAGAGCTCCAATACCATAGCTTCTCGGAGTCACCTAGTGCAG”: the binding signal is 3990 fluorescence intensity (a.u.).
For “CAATAATTTGGCTCATGCTTCTCCTTCTCCTGCATGCTGCCGGAGTCACCTAGTGCAG”, the binding signal was 9460 fluorescence intensity (a.u.).
As for “TAGATTGGCTATAGATGAATTGGAGCTAGTAGTTGGCTATCGGAGTCACCTAGTGCAG”, the binding signal was 25400 fluorescence intensity (a.u.).
Regarding “GACATTAATTGGATGGACACATGCTAACCAACTAAAATACCGGAGTCACCTAGTGCAG”, the binding signal is 13300 fluorescence intensity (a.u.).
For “TTTGATGGGAACTTAATGCAGCCTTGGTTTTCTCTGCCAACGGAGTCACCTAGTGCAG”, the binding signal was 23200 fluorescence intensity (a.u.).
With “TGAGGATTCTCCAGATTGATTGGTACACAAAGACAGACAACGGAGTCACCTAGTGCAG”, the binding signal is 22700 fluorescence intensity (a.u.).
In the case of “ACGTGCATCGAGATTGCTTGTGATGATCATTTCAATAATGCGGAGTCACCTAGTGCAG” it was 3290 fluorescence intensity (a.u.).
In the case of “GATTCAATTAATCAGGTTAGGTACATGATTGTTTCCCCTGCGGAGTCACCTAGTGCAG” it was 37300 fluorescence intensity (a.u.); in that of “CAGCAGCATTAATTTGTTGATGATCGTTGCGGTGCCTTTACGGAGTCACCTAGTGCAG”, 7350 fluorescence intensity (a.u.).
With “AGAACACAATCCACTAATTAGTCGAATCCAGAGCTATTAACGGAGTCACCTAGTGCAG” the figure was 6260 fluorescence intensity (a.u.); with “ACCTCCCTTTAATTGCTGTATTTTATTCCCTAATCTCACTCGGAGTCACCTAGTGCAG”, 7650 fluorescence intensity (a.u.); with “TTTAAAATTAATACTTAAATTAATTATGTGCTAATGAACCCGGAGTCACCTAGTGCAG”, 23900 fluorescence intensity (a.u.).
Regarding “GATTATCTATTTATAAATTTAATATTTTGACAAATACATTCGGAGTCACCTAGTGCAG”, the binding signal is 7580 fluorescence intensity (a.u.).
“GTTAATTACTTGCCACAAAACCGGGCTTAACAGAATACAGCGGAGTCACCTAGTGCAG”: the binding signal is 15900 fluorescence intensity (a.u.).
“AAACTAATTACTACTACTAGCACCACACATTAACATCCACCGGAGTCACCTAGTGCAG”: the binding signal is 13800 fluorescence intensity (a.u.).
Consider “GTGAATGTGATTTGTTGCTTTGATATTTTCATGTAACAATCGGAGTCACCTAGTGCAG”, for which the binding signal was 17500 fluorescence intensity (a.u.).
As for “GGAAACCAGCCTTAACATGATTAAATTCCAATCATTATTACGGAGTCACCTAGTGCAG”, the binding signal was 4670 fluorescence intensity (a.u.).
In the case of “GATAATTTGTCAGAAAATTCCGGGAATTTTGAATAGGACTCGGAGTCACCTAGTGCAG” it was 17300 fluorescence intensity (a.u.); in that of “ATCCTATGATTACTACACGATAACTAATGAGAAACTACTACGGAGTCACCTAGTGCAG”, 6780 fluorescence intensity (a.u.).
For “TACTACTAATTATATGCCGATTGAGAGTGTTGTAGCGTCACGGAGTCACCTAGTGCAG”, the binding signal was 17700 fluorescence intensity (a.u.).
With “CAACTAAACTCCCTATCAATTTCCATCACCTCTACCAAACCGGAGTCACCTAGTGCAG” the figure was 5360 fluorescence intensity (a.u.).
For the sequence “TGCCTAGCTAATTCGCGTCATTCATCTCCTCCTCCTTATACGGAGTCACCTAGTGCAG”, the binding signal was 3760 fluorescence intensity (a.u.).
On to “CGTAAAATATTAATCATATTTTATCTTCTAACAACAATGACGGAGTCACCTAGTGCAG”, for which the binding signal was 5570 fluorescence intensity (a.u.).
Turning to “GCGAGCCGTGTGATTGCCTGCTCCTCCTCCGATCCTGTGTCGGAGTCACCTAGTGCAG”, the binding signal is 9380 fluorescence intensity (a.u.).
